Assay results from PubChem BioAssay AID686978 (National Center for Advancing Translational Sciences (NCATS), 2013).
Out of some 420,000 compounds screened, about 64,000 (15%) were called active. Inconclusive means that the source gave no clear call. Such entries were picked first, then a sample of the others. Calls follow the shape of the dose curve; as a rule, active = well fitted inhibition curve with a large enough effect; inconclusive = small, poorly fitted or top-dose-only effect; inactive = flat fitted curve, though single readings scatter. No potency is given beside an inconclusive call; the fits are too rough. Where a structure was tested more than once in an assay, its records may differ in their call.

Assay: qHTS for Inhibitors of human tyrosyl-DNA phosphodiesterase 1 (TDP1): qHTS in cells in absence of CPT; also: nearly all actives have a fitted effect of over 55% in size
Conditions: DT40 Tdp1-/- hTDP1 cells, no CPT, ATP luminescence, 48 h; activity change, negative = growth inhibition: at 46.2 µM (top of the series) unless noted
Method in brief: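 Chicken DT40 Tdp1-/- cells complemented with human TDP1, screened without camptothecin (DMSO vehicle only), 400 cells/well. Compounds pin-transferred, cells incubated at 37 °C for at least 48 hr. Growth read as ATP-dependent luminescence (CellTiter-Glo, 30 min at RT).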
% is scaled to controls: 0 for no effect and ±100 for the full control effect; potency is read from the fitted curve at half-maximal effect; tags tell the direction and shape of the fitted curve.

| Structure (SMILES) | Potency | activity change, negative = growth inhibition |
| --- | --- | --- |
| COC(=O)c1c(-c2ccc(Cl)cc2)noc1N1CCN(c2cccc(C(F)(F)F)c2)CC1 | active: 23.1 µM |  |
| CCc1ccccc1NC(=O)NCc1ccc2c(c1)CCN2C(=O)c1ccccc1 | active: 23.1 µM |  |
| CC(C)C(=O)NC(c1ccccc1)c1cc([N+](=O)[O-])c2cccnc2c1O (stereo not drawn) | inconclusive [inhibitor, single point] |  |
| CCS(=O)(=O)c1nc(S(=O)(=O)c2ccc(Cl)cc2)c(NCc2ccccn2)s1 | inactive |  |
| Cc1cc2c(c(=O)o1)C(C(C)C)C(C#N)=C(N)O2 (stereo not drawn) | inactive |  |
| CCCCN(CC)Cc1ccc(CNC(=O)Nc2ccccc2)o1 | active: 10 µM |  |
| C[C@H]1CN([C@@H](C)CO)C(=O)Cc2cc(NC(=O)CCN3CCOCC3)ccc2O[C@@H]1CN(C)Cc1ccc(Oc2ccccc2)cc1 | active: 23.1 µM |  |
| CN(CC(=O)N(C)CC(=O)Nc1c(Cl)cccc1Cl)Cc1ccccc1F | inactive |  |
| c1coc(-c2nc3nc4ccccc4n3nc2-c2ccco2)c1 | inconclusive [inhibitor, partial curve, poor fit] |  |
| O=C(CSc1nccn1Cc1ccccc1)NCc1ccccc1Cl | inconclusive [inhibitor, single point] |  |
| CCCn1ccc2c(OCC(=O)NCc3ccccc3Cl)cccc2c1=O | active: 23.1 µM |  |
| CCOC(=O)C(=O)Nc1ccccc1C(=O)NC(C)C | inactive |  |
| CC(C)NC(=O)C1CCN(C2CCN(C(=O)c3scc4c3CCCC4)CC2)CC1 | inconclusive [inhibitor, partial curve] |  |
| CC(=O)NC1(c2ccccc2)CCN(c2cc(C)nc(-c3ccccc3)n2)CC1 | inconclusive [inhibitor, single point] |  |
| CN(CC1CCCO1)S(=O)(=O)c1ccc(C(=O)Nc2nc3cc4c(cc3s2)OCO4)cc1 (stereo not drawn) | active: 10.3 µM |  |
| CCOC(=O)N1CCN(Cc2cc(=O)oc3ccc(Cl)cc23)CC1 | inconclusive [inhibitor, single point] |  |
| CCOC(=O)C1CCCN(Cc2nc(N)nc(Nc3ccccc3)n2)C1 (stereo not drawn) | active: 18.4 µM |  |
| O=C(c1cc2c(=O)n3ccccc3nc2s1)N1CCN(c2cccc(Cl)c2)CC1 |  | inconclusive: -34.6% [inhibitor] |
| O=C(CNC(=O)c1ccc2c(c1)OCCO2)N/N=C/c1ccc(O)cc1O | active: 18.4 µM |  |
| N#Cc1c(SCC(=O)Nc2nccs2)nc2c(c1-c1ccco1)CCCC2 | inconclusive [inhibitor, partial curve, poor fit] |  |
| COc1ccccc1-n1c(SCC(=O)N2CCc3ccccc32)nc2c(c1=O)SCC2 | active: 7.31 µM |  |
| Cc1cc(C)nc(NS(=O)(=O)c2ccc(NC(=O)COc3ccc(C(C)(C)C)cc3)cc2)n1 | inconclusive [inhibitor, single point] |  |
| COc1ccccc1NC(=O)CSc1ncn(-c2ccccc2)n1 | inconclusive [inhibitor, partial curve] |  |
| COC(=O)c1ccc(OC(=O)c2ccc(OC)c(OC)c2)c(OC)c1 | inactive |  |

| Structure (SMILES) | Potency | activity change, negative = growth inhibition |
| --- | --- | --- |
| COc1ccc(-c2cc(C(F)(F)F)nc(SCC(=O)Nc3cc(C)on3)n2)cc1 | inconclusive [inhibitor, full curve] |  |
| NC(Cc1ccc(C(F)(F)F)cc1)c1csc(NC(=O)Nc2ccccc2)n1 (stereo not drawn) | inconclusive [inhibitor, single point] |  |
| Cc1cccc(C)c1Nc1c(-c2ccsc2)nc2ccc(Cl)cn12 | active: 7.31 µM |  |
| Cc1cc(C(=O)N2CCCCCC2)cs1 | inconclusive [inhibitor, partial curve] |  |
| CCN(CC)c1ccc(C(NC(=O)C(C)C)c2ccc3cccnc3c2O)cc1 (stereo not drawn) | active: 2.91 µM |  |
| OCC1OC(n2ccc3c2ncn2ncnc32)C(O)C1O (stereo not drawn) | active: 0.461 µM |  |
| OCCN(CC(O)COc1ccccc1)CC(O)Cn1ccc2ccccc21 (stereo not drawn) | inconclusive [inhibitor, single point] |  |
| CC1(C)[C@@H]2CC[C@@]1(C)C(=O)C2 | active: 3.35 µM |  |
| C/C=C(/C)C(=O)O[C@@H]1c2cc3c(c4c2[C@@]2(CO4)C(=O)C(OC)=C(OC)C=C2C[C@@H](C)[C@H]1C)OCO3 | inconclusive [inhibitor, single point] |  |
| COc1ccc(/C=N/NC(=O)c2ccncc2)c(OC)c1 | inactive |  |
| O=C(Nc1ccccc1)Oc1cccc(Br)c1 | inactive |  |
| CC(C)Cn1cc(NC(=O)N2CCN(c3ccccc3F)CC2)c2ccccc2c1=O | inconclusive [inhibitor, partial curve] |  |
| CC(=O)C1=C(O)C=C(c2ccco2)CC1c1ccco1 (stereo not drawn) | inconclusive [inhibitor, single point] |  |
| CCOC(=O)C1CCCCN1C(=O)c1oc2c(Cl)cc(C)cc2c1C (stereo not drawn) | inconclusive [inhibitor, single point] |  |
| O=c1c2ccccc2nnn1Cc1ccc(F)cc1 | inactive |  |
| COc1ccc(N(C)S(=O)(=O)c2cccc(C(=O)N3CCN(c4ccccc4)CC3)c2)cc1 | inconclusive [inhibitor, single point] |  |
| COc1ccc(N=C/C=C2\C=C(c3ccccc3)OC(C)(C)O2)cc1 | inconclusive [inhibitor, single point] |  |
| CCn1nccc1C(=O)Nc1cccc(C)c1C | inactive |  |
| COc1ccc(N2CCN(Cc3nc4ccccc4n3C)CC2)cc1 | inactive |  |
| Cc1cc(Cl)nc2ccc(Cc3ccc4nc(Cl)cc(C)c4c3)cc12 | inconclusive [inhibitor, single point] |  |
| Cc1ccc(C)c2[nH]c(=O)c(CCNC(=O)c3ccc(S(=O)(=O)N4CCOCC4)cc3)cc12 | inconclusive [inhibitor, single point] |  |
| CC1(C(=O)NS(=O)(=O)c2cccc(C#N)c2)CCN1C(=O)C/C=C/c1ccccc1 (stereo not drawn) | inactive |  |
| Cc1cc(C)nc(SCC(=O)Nc2nc(-c3ccccc3)c(-c3ccccc3)o2)n1 | active: 23.1 µM |  |
| COc1ccc(OC)c(CCNC(=O)c2cnn(-c3ccccc3)c2C2CCN(C(=O)OC(C)(C)C)CC2)c1 | active: 23.1 µM |  |
